Target: Megathura crenulata (keyhole limpet) hemocyanin, native (Megathura crenulata) (UniProt Q10583)
Assay: negative-stain transmission electron microscopy; hemocyanins 0.6 mg/ml on parlodion-coated copper grids, 1-2% uranyl acetate; didecamers, decamers and dissociated structures counted in about 20 images

Megathura crenulata (keyhole limpet) hemocyanin, native, Q10583 17-3414; Q10584 20-3421
stoichiometry N: 20

Source: publication PMC6926458
